# Results: PubChem BioAssay AID1963438 (Molecular Pharmacology Branch, DTP, NCI, 2024)
# A number of entries come with more than one value. The other results are left out here. An entry can have further records. The records of an entry repeat one measurement in other runs, samples, wells, individuals or studies. Brackets with × stand for listed records that agree. Marks such as [2022-09] give the month of the run.
# Test system: NCI-H510 multicellular tumor spheroid growth, % test/control
# Test: Anticancer human tumor NCI-H510 cell line growth inhibition [Asc];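 also: spheroids exposed to agents for 7 days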;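 as to viability, T/C: 100% = DMSO vehicle control wells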
# Details: for viability, T/C: stronger effect = lower value
# Description: Multicellular complex tumor spheroid response to apoptosis pathway targeting inhibitors Alrizomadlin, Pelcitoclax, and Dasminapant in combination with a variety of drugs and investigational agents in selected tumor cell lines
# The MDM2 inhibitor alrizomadlin, the Bcl-2/Bcl-xL inhibitor pelcitoclax, and the IAPs inhibitor dasminapant were evaluated both individually and in combination with standard of care and investigational anticancer small molecules within a complex spheroid model of solid tumors. . Complex spheroids include a stromal component modeled by human endothelial cells (HUVEC) and fibroblasts modeled by human mesenchymal stem cells (MSCs). The concentration ranges selected for each drug and investigational agent were based upon clinically achievable concentrations if the clinical Cmax of the agent was known.
# Compounds. The drugs and investigational agents: alrizomadlin (APG-115; NSC831270), pelcitoclax (APG-1252; NSC835773), dasminapant (APG-1387;NSC834197), TAK-243 (NSC785004), copanlisib (NSC809693), olaparib (NSC753686), talazoparib (NSC767125), cobimetinib (NSC 768068), eltanexor (KPT-8602, NSC 794443), abemaciclib (NSC 768073), sotorasib (NSC818433), adagrasib (NSC 831453), MRTX-1133 (NSC 836407), Iadademestat (ORY1001, NSC 806812), and RMC-4630 (NSC839698), were obtained from the NCI Developmental Therapeutics Program Chemical Repository. The FDA-approved anticancer drug set is available from the Developmental Therapeutics Program at https://dtp.cancer.gov/organization/dscb/obtaining/available plates.htm. […] The stock solutions were prepared in dimethyl sulfoxide (DMSO, Sigma-Aldrich, St. Louis, MO, cat. D2650) at 800-fold the tested concentration and stored at -70 degrees C prior to their use. All drugs and investigational agents were tested over a range starting from a high concentration at or near the clinical Cmax and decreasing in half-log increments. If the clinical Cmax for an agent had not been determined, the highest concentration tested was 10 microM.
# The patient-derived cancer (PDC) cell lines include five colon adenocarcinomas: 186277-243-T-J2-PDC, 616215-338-R-J1-PDC, 439559-082-T-J2-PDC, 463943-066-T-J2-PDC, and 519858-162-T-J1-PDC; three pancreatic carcinomas: 323965-272-R-J2-PDC, 521955-158-R6-J3-PDC, and 521955-158-R2-J5-PDC; two uterine sarcomas: 327498-152-R-J2-PDC and 993429-296-R-J1-PDC; two rhabdomyosarcomas: 755483-174-R-J1-PDC and 772245-204-R-J1-PDC; two soft tissue sarcomas: 126254-015-R-J1-PDC and 494315-158-R-J1-PDC; two malignant fibrous histiocytomas: 317291-083-R-J1-PDC and 596521-263-R-J1-PDC; two breast carcinomas: 171881-019-R-J1-PDC and 885512-296-R-J2-PDC; and one ovarian carcinoma: 6556581-035-R-J-PDC were obtained from the NCI PDMR, (https://pdmr.cancer.gov). The established cell lines HSSY-2 synovial sarcoma (RRID:CVCL 8719), SYO-1 synovial sarcoma (RRID:CVCL_7146), MPNST malignant peripheral neural sheath tumor were obtained from the Sloan Kettering Institute. The following established cell lines were purchased from the American Type Culture Collection (ATCC, Manassas, VA), Sor the received from the NCI repository:, PANC-1 pancreatic carcinoma (CRL-1469, RRID:CVCL_0480), OVCAR-5 ovarian carcinoma (RRID:CVCL_1628), OVCAR-8 ovarian carcinoma (RRID:CVCL_1629), , MCF-7 breast carcinoma (CRL-12584, RRID:CVCL_0031), MDA-MB-231 breast carcinoma (CRL-12532, RRID:CVCL_0062), NCI-H1876 small cell lung carcinoma (CRL-5902, RRID:CVCL_1503), NCI-H510A small cell lung carcinoma (HTB-184, RRID:CVCL_1565), NCI-H1417 (CRL-5869, RRID:CVCL_1469), and NCI-H196 small cell lung carcinoma (CRL-5823, RRID:CVCL_1509). Dr. Peter Houghton (Greehey Children's Cancer Research Institute, University of Texas Health Science Center, San Antonio, TX) provided Rh-18 rhabdomyosarcoma (RRID:CVCL_1659). Pooled donor human umbilical vein endothelial cells (HUVEC, Lonza, cat. CC-2519) and human mesenchymal stem cells (hMSC, Lonza, cat. PT-2501) were purchased from Lonza (Walkersville, MD).
# Cell Culture. […]
structure (smiles),measurement,setting,value
Cn1ncnc1[C@H]1c2n[nH]c(=O)c3cc(F)cc(c23)N[C@@H]1c1ccc(F)cc1,IC50,compound alone,"6.25 nM, 5.86 nM, > 100 nM"
Cc1c(S(C)(=O)=O)c(-c2cc(F)cc(N3CCN(c4ccc(NS(=O)(=O)c5ccc(NC(CCN6CCC(C(=O)OCCCP(=O)(O)O)CC6)CSc6ccccc6)c(S(=O)(=O)C(F)(F)F)c5)cc4)CC3)c2)c(-c2ccc(Cl)cc2)n1C(C)C (stereo not drawn),"viability, T/C",compound alone 0.1 µM,"111, 79.9, 65.2, 83.3 (2×), 88.4, 91.9, 79.6, 98.5, 97.8, 85, 106, 80.4, 123%"
same,"viability, T/C",compound alone 0.316 µM,"97.1, 92.2, 103 (2×), 81, 87.4, 85, 122, 95.9, 85.3, 93.4, 95.8, 74.8, 105%"
same,"viability, T/C",compound alone 3.16 µM,"106, 68.7, 90.4, 77.5, 85.4, 91.8, 115, 76.4, 92.1, 95.6, 78.2, 94.7, 107, 101%"
same,"viability, T/C",compound alone 10 µM,"70.8, 97, 83.2 (2×), 87.8, 77.3, 68.8, 89, 89.8, 84.3, 81.8, 102, 72.5, 128%"
CNC(C)C(=O)NC1CN(S(=O)(=O)c2cccc(S(=O)(=O)N3CCC4CCC(C(=O)NC(c5ccccc5)c5ccccc5)N4C(=O)C(NC(=O)C(C)NC)C3)c2)CCC2CCC(C(=O)NC(c3ccccc3)c3ccccc3)N2C1=O (stereo not drawn),"viability, T/C",compound alone 0.316 µM,"69.8, 98.5, 88.6, 96.6, 102 (2×), 97.2, 107, 117, 124, 90.7, 105, 110% [2022-10] and 108% [2022-11]"
same,"viability, T/C",compound alone 1 µM,"104, 88.7, 102 (2×), 98, 119, 98.8, 109, 111 (2×), 98.1, 112% [2022-10] and 103% [2022-11]"
O=C(c1cc(Cc2n[nH]c(=O)c3ccccc23)ccc1F)N1CCN(C(=O)C2CC2)CC1,"viability, T/C",compound alone 10 µM,"14.3%, 9.93%, 54.7%"
CCN1C(C(=O)NC23CCC(C(=O)O)(CC2)CC3)C(c2cccc(Cl)c2F)C2(C(=O)Nc3cc(Cl)ccc32)C12CCCCC2 (stereo not drawn),"viability, T/C",compound alone 0.03 µM,"83.3, 102 (2×), 118, 107 (2×), 130, 67.2, 105, 97.1, 103 (2×), 98, 97.5, 111%"
same,"viability, T/C",compound alone 0.0949 µM,"82.4, 101, 105, 90.6, 118, 117, 74.2, 89, 104, 96.7, 91.7, 82.9, 99.3, 107, 99%"
same,"viability, T/C",compound alone 0.3 µM,"90, 89.7, 125, 102 (2×), 103, 100, 68, 101, 84, 107, 104 (2×), 113, 99.5%"
same,"viability, T/C",compound alone 0.949 µM,"107 (4×), 128, 102, 88, 91.4, 97.3, 117 (2×), 108, 90.6, 101, 105%"
same,"viability, T/C",compound alone 3 µM,"88.2, 89.9, 138, 102, 84.5, 96.3, 95.8, 86.5, 103, 88.3, 99.2, 111, 86.9, 97.3, 91.9%"
